Source: article PMC4336329 (PLoS ONE, 2015)
About 2,200 (0.71%) of roughly 310,000 compounds showed an effect of 50% or more. The effect is printed as a negative number. This is one part of the list.

These molecules were tested against human ether-à-go-go-related gene (hERG) potassium channel (human, UniProt Q12809) (assay: primary screen, population patch clamp on CHO cells stably expressing hERG).
Chain of human ether-à-go-go-related gene (hERG) potassium channel (Q12809 whole entry, looked up): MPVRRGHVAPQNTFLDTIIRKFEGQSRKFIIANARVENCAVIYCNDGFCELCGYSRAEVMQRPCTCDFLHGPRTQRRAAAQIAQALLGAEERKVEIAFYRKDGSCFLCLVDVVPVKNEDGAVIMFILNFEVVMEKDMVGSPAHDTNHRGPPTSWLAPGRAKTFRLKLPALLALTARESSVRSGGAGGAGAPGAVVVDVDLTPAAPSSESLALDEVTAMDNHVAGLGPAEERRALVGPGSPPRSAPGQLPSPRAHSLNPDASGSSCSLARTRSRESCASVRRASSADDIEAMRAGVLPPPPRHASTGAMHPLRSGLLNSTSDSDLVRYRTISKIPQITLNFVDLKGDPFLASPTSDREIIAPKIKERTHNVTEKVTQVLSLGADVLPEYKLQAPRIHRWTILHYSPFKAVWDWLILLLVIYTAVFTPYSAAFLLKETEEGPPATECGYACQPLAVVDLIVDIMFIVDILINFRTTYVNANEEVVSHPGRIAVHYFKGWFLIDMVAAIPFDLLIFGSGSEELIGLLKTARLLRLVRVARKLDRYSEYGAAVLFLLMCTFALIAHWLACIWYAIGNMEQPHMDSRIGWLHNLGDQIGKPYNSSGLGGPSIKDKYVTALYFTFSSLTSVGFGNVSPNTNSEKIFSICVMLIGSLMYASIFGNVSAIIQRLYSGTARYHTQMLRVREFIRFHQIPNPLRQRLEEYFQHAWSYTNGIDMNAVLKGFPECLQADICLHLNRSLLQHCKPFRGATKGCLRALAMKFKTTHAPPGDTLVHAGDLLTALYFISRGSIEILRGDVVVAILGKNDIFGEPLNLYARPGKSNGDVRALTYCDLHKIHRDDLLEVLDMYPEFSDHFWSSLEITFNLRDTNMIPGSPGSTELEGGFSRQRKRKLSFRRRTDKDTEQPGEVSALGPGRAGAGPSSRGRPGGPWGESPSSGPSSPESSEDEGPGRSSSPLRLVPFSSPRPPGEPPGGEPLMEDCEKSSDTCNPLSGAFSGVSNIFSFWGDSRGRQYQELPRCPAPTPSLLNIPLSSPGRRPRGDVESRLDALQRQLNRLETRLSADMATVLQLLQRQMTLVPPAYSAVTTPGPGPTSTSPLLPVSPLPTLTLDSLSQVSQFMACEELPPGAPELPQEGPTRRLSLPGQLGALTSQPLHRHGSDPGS

Row | SMILES | hERG current change (%, negative = inhibition) at 1uM [%]
1 | COCCCNC(=O)CNC(=O)c1nn(-c2ccc(OC)cc2OC)c(=O)c2ccccc12 | 12.4
2 | COc1cccc(NC(=O)Cc2nnc(SCCOc3ccccc3)n2C)c1 | 3.67
3 | Cc1c(C(Nc2ccccn2)c2ccccc2)c(=O)n(-c2ccccc2)n1C (stereo not drawn) | 3.6
4 | O=S(=O)(c1ccccc1)N1CCCC1c1nc2ccccc2s1 (stereo not drawn) | 12.2
5 | CC1Oc2ccccc2C=C1/C=N/NC(=O)c1ccncc1 (stereo not drawn) | 9.22
6 | CCCCSc1nnc2n(CCc3ccccc3)c(=O)c3c4c(sc3n12)COC(C)(C)C4 | 12.9
7 | CC(=O)NC1C(Oc2ccc(C=O)cc2)OC(COC(C)=O)C(OC(C)=O)C1OC(C)=O (stereo not drawn) | 21.8
8 | CCOC(=O)c1sc(NC(=S)NC(=O)C23CC4CC(CC(C4)C2)C3)cc1C | 17.5
9 | CC(=O)Nc1ccc(-c2csc(-c3cccnc3)n2)cc1 | 2.61
10 | Cc1cc(S(=O)(=O)NCc2ccccc2)ccc1OCC(=O)N1CCOCC1 | -1.59
11 | Cc1cccc(C)c1NC(=O)CN(C)C(=O)[C@H](C)NC(=O)c1ccco1 | 5.58
12 | Cc1oc(-c2ccccc2)nc1CS(=O)CC(=O)N1CCc2ccccc2C1 (stereo not drawn) | -1.69
13 | O=C(Cc1cccs1)N1CCC(c2nc3c(nnn3Cc3ccccc3Cl)c(=O)[nH]2)CC1 | 0.73
14 | CC(C)CCSc1nc2ccccc2[nH]1 | 7.31
15 | N#Cc1ccc(-c2ccc(OCC3CNC(=O)O3)cc2)cc1 (stereo not drawn) | 8.74
16 | O=C(O)c1ccc(N/N=C/c2cn(-c3ccccc3)nc2-c2cccs2)cc1 | 1.74
17 | Cc1nc2ccccn2c1C(=O)c1ccccc1 | -11.4
18 | O=S(=O)(Nc1ccncc1Cl)c1ccc2ccccc2c1 | 9.22
19 | COc1ccc([N+](=O)[O-])c2c(=O)ccoc12 | -7.49
20 | CCN(CC)C(=O)CN(C#N)c1nc(Cl)nc(N(C)C)n1 | 10.2
21 | CCN(c1ccccc1C)S(=O)(=O)c1nnc(NC(=O)c2ccco2)s1 | 12.9
22 | COc1ccc(N/C(C)=C2/C(=O)C(=O)N(CCO)C2c2ccc(Br)cc2)cc1 (stereo not drawn) | -11.6

Row | SMILES | hERG current change (%, negative = inhibition) at 1uM [%]
23 | Oc1ccc(NCc2ccccc2OCc2ccccc2)cc1 | 6.82
24 | CCC(=O)n1nc(-c2ccccc2)nc1NCc1ccccc1 | 8.81
25 | CN(C)CCN1C(=O)C(=O)/C(=C(/O)c2ccc(S(=O)(=O)N3CCOCC3)cc2)C1c1ccc(F)cc1 (stereo not drawn) | -4.52
26 | CCN(CC)c1ccc(C=Nc2cc(C)ccc2C)c(O)c1 | 11
27 | Nc1nc(SCC(=O)Nc2ccc([N+](=O)[O-])cc2)[nH]c(=O)c1NC(=O)c1ccc(Br)cc1 | 12.9
28 | COc1ccc(-c2cc(C(=O)Nc3cccc(O)c3)no2)cc1 | 13.3
29 | CCCCCN1CC(=O)N2[C@@H](Cc3c([nH]c4ccccc34)C2(C)C)C1=O | 21.1
30 | CC1Cc2ccccc2N1S(=O)(=O)c1cccc(C(=O)NCCCn2ccnc2)c1 (stereo not drawn) | -15.5
31 | Cc1ccc(OCCCN2CCCC2)c(C)c1.O=C(O)C(=O)O | -11.8
32 | O=C(Nc1ccc(CN2CCOCC2)cc1)c1ccc(-c2cccc([N+](=O)[O-])c2)o1 | 9.02
33 | CCOC(=O)C1CCN(C(=O)COc2ccc([N+](=O)[O-])cc2)CC1 | -25
34 | COC(=O)c1cccc(NC(=O)NC(=O)c2ccc(Cl)cc2)c1 | 11.8
35 | Cc1ccc(C(C)NC(=O)c2c(-c3ccccc3)noc2C)cc1C (stereo not drawn) | 12.1
36 | CC(C)(C)c1nc2c(Br)cc(Br)cc2c(=O)o1 | 23.5
37 | Cc1c(NC(=O)CC2NC(=O)NC2=O)c(=O)n(-c2ccccc2)n1C (stereo not drawn) | 5.95
38 | Cc1ccc(S(=O)(=O)N2CCCC2C(=O)NCc2ccncc2)cc1 (stereo not drawn) | 11.6
39 | O=C(N/N=C/c1cccnc1)c1cccc(S(=O)(=O)Nc2cccc(Cl)c2)c1 | -0.757
40 | COC(=O)c1ccc(CNC(=O)COC(=O)CCC2CCCC2)cc1 | 8.27
41 | CCOC(=O)N1CCC(N2Cc3cccc(C(=O)O)c3C2=O)CC1 | -2.57
42 | O=C(COC(=O)c1ccc(S(=O)(=O)C(F)F)cc1)Nc1cccnc1Cl | 15.1
43 | CCn1c(/N=C/c2ccccc2NS(=O)(=O)c2ccc(C)cc2)nc2ccccc21 | -1.47
44 | COc1cccc(-c2nnc(SCC(=O)NCc3ccc4c(c3)OCO4)n2Cc2ccco2)c1 | -15.2

Row | SMILES | hERG current change (%, negative = inhibition) at 1uM [%]
45 | CCn1c2ccccc2c2cc(NC(=O)c3cc(OC)c(OC)c(OC)c3)ccc21 | 11.8
46 | CC(=O)Nc1cccc(NC(=O)c2ccc3[nH]c(C)c(C)c3c2)c1 | 18.3
47 | O=C(Cc1cccc2ccccc12)N1CCCc2ccccc21 | 4.44
48 | COc1ccc(/C=C/C(O)=C2/C(=O)N(C)C3(C)CC2c2ccccc2O3)cc1 (stereo not drawn) | -5.55
49 | Cc1cc(C)n(CC(=O)N/N=C/c2cc([N+](=O)[O-])ccc2O)n1 | 0.701
50 | Cc1ccc(OCCNC(=O)c2cc(C(=O)NCCOc3ccc(C)cc3)cc([N+](=O)[O-])c2)cc1 | -3.4
51 | O=C1c2ccccc2C(=O)N1CCSC(=S)N1CCOCC1 | 2.19
52 | COc1cc(SC)ccc1C(=O)Nc1ccc(Cl)cn1 | 22.2
53 | NS(=O)(=O)c1ccc(NC(=O)c2ccc3c(c2)CCCC3)cc1 | 23.1
54 | CCOC(=O)CN1CC23C=CC(O2)C(C(=O)NCc2ccc(C)cc2)C3C1=O (stereo not drawn) | 6.13
55 | O=C(CCC1CC(=O)Nc2ccccc21)NCc1ccccc1 (stereo not drawn) | -4.5
56 | Cc1c(C(=O)Nc2ccccc2)csc1-c1ccccc1 | 16.5
57 | CCOc1ccc(CCNC(=O)CS(=O)(=O)Cc2nc(-c3ccccc3F)oc2C)cc1 | 8.2
58 | CCOC(=O)N=S(=O)(Oc1ccc([N+](=O)[O-])cc1)c1ccc(Cl)cc1 (stereo not drawn) | 12.2
59 | O=C(NNc1cccc(Cl)n1)c1ccc(Cl)nc1 | 10.3
60 | Cc1nc(-c2ccc(Cl)cc2)sc1C1(C)CC(c2ccc(Br)cc2)=NO1 (stereo not drawn) | 0.0445
61 | Cc1c(Cl)cn2c(=O)cc(CN3CCN(c4ccccc4)CC3)nc2c1Cl | -1.3
62 | COC(=O)C1=C(N)Oc2cc(N(C)C)ccc2C1c1ccccc1OC (stereo not drawn) | -84.1
63 | CS(=O)(=O)N(CC(=O)NCCC1=CCCCC1)c1cccc([N+](=O)[O-])c1 | 1.86
64 | N#C/C(=C/c1ccc(N2CCOCC2)o1)c1nc2ccccc2[nH]1 | -1.21
65 | O=C(c1ccc2c(=O)n(C3CCCC3)c(=S)[nH]c2c1)N1CCCCCC1 | 4.85
66 | Cc1nc(NC(=O)COc2ccccc2)sc1C(=O)Nc1ccccc1 | 7.07

Row | SMILES | hERG current change (%, negative = inhibition) at 1uM [%]
67 | O=C(Nc1nnc(SCc2cccnc2)s1)C1CC(=O)N(c2ccccc2)C1 (stereo not drawn) | 13.5
68 | CCOc1c2ccc(C(=O)NCc3ccc(OC(F)(F)F)cc3)cc2nn1C | 6.67
69 | CC12CCC(=O)N1C(C(=O)N1CCN(c3cccc(Cl)c3)CC1)CS2 (stereo not drawn) | -1.7
70 | CSc1ncc(CN2CCCC(C(=O)c3ccccc3SC)C2)cn1 (stereo not drawn) | -12.6
71 | O=C(COC(=O)c1cccnc1Nc1ccccc1F)NCc1ccc2c(c1)OCO2 | 2.23
72 | COCO/C=C(\NC(C)=O)c1ccccc1 | 12
73 | Cc1cc(C)nc(SCc2cc(=O)c(OC(=O)c3ccco3)co2)n1 | 11.7
74 | Cc1ccc(NC(=S)NCC2CCN(C(C)c3ccccc3)C2)cc1 (stereo not drawn) | 1.58
75 | O=C(N/N=C/c1c(F)cccc1Cl)c1ccc(Cn2cc(Br)cn2)o1 | 4.3
76 | Cc1c(C)c2ccc(O)c(CN3CCCC3)c2oc1=O | 17.8
77 | O=S(=O)(Nc1ccc(Cl)c(Cl)c1)N1CCOCC1 | 7.48
78 | CCOC(=O)C(C(=O)OCC)c1c([N+](=O)[O-])c(=O)n2c3c(cccc13)CCC2 | 12.9
79 | O=C(NC1CCN(C(=O)c2ccccc2Br)CC1)c1ccccc1 | 17
80 | N#CCc1ccc(NC(=O)CSc2nnc(C3CC3)n2C2CC2)cc1 | 23
81 | O=C(NC(=S)Nc1ccc2oc(=O)ccc2c1)c1cccc(F)c1 | 17.5
82 | Cc1ccc(Oc2ccc(N)cc2)cc1.Cl | 7.92
83 | CC(c1nc2ccccc2c(=O)[nH]1)N1CCN(C)CC1 (stereo not drawn) | 0.394
84 | COC(=O)COc1ccc(S(=O)(=O)N2CCCCC2)cc1[N+](=O)[O-] | 14.6
85 | O=C(CSc1nnc2ccccn12)NNC(=O)c1ccc(Br)cc1 | 16.9
86 | CCn1c(SCC(=O)Nc2ccc(S(=O)(=O)Nc3onc(C)c3C)cc2)nnc1-c1ccccc1 | -8.31
87 | Cc1ccc(-n2cccn2)c(CN2CCCC(C(=O)c3sccc3C)C2)c1 (stereo not drawn) | -82.8
